# Measured values published in the supplement of paper PMC12217912.
# Some of the results follow. Sequences were assembled here from the parent chain. Inactive controls read about 0.05.
# B1: TEV protease; numbered along this chain (parent)
# chain: MGESLFKGPRDYNPISSSICHLTNESDGHTTSLYGIGFGPFIITNKHLFRRNNGTLVVQSLHGVFKVKDTTTLQQHLVDGRDMIIIRMPKDFPPFPQKLKFREPQREERICLVTTNFQTKSMSSMVSDTSCTFPSGDGIFWKHWIQTKDGQCGSPLVSTRDGFIVGIHSASNFTNTNNYFTSVPKNFMELLTNQEAQQWVSGWRLNADSVLWGGHKVFMVKPEEPFQPVKEATQL
# Variants of: B1
# Test: raw area under fraction-flipped curve 0-4 h after induction (AUC4h, not background-subtracted), DNA-recorder readout of cleavage of the substrate (dimensionless); higher = more cleavage of the substrate by the protease variant
# Conditions: temperature: 34 °C; time window: 0-4 h after rhamnose induction
# Description: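 In vivo DNA recorder in E. coli TOP10(DE3) ΔrhaA at 34 °C. Each TEVp single-site mutant (parent TEVp 0) is paired with a single-site variant of the 7-mer TEVs (canonical ENLYFQ|S). The substrate sits between flexible linkers in a Bxb1-sfGFP-TEVs-SsrA fusion, so cleavage stabilises Bxb1 and speeds flipping of a recombination array, read by NGS. The value is the raw area under the fraction-flipped curve over 0-4 h after rhamnose induction (AUC4h), with ≥20 reads per time point. It is not background-subtracted; inactive controls average about 0.047.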
# 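Further: Bxb1 expression induced with 0.2% (w/v) L-rhamnose at OD600 near 0.5, cultures sampled hourly, flipped fraction per protease–substrate barcode pair counted by paired-end Illumina sequencing.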
Variant,area with substrate ENLYFCS,area with substrate ENLYFDS,area with substrate ENLYFES,area with substrate ENLYFFS,area with substrate ENLYFIS,area with substrate ENLYFKS,area with substrate ENLYFMS,area with substrate ENLYFNS,area with substrate ENLYFRS,area with substrate ENLYFTS,area with substrate ENLYFVS,area with substrate ENLYFWS,area with substrate ENLYFGS,area with substrate ENLYFHS,area with substrate ENLYFPS,area with substrate ENLYFLS,area with substrate ENLYFYS,area with substrate ENLYFSS
S182P,0.0626,0.0792,0.0848,0.0708,0.0478,0.0808,0.0672,0.0723,0.0698,0.0596,0.064,0.0562,–,–,–,–,–,–
R51W,0.0625,0.0448,0.0597,0.0606,0.0469,0.0619,0.0725,0.055,0.069,0.0629,0.0635,0.0808,0.0692,0.0681,0.0633,–,–,–
L205T,0.0521,–,–,–,–,–,0.0577,–,–,0.0536,–,–,0.07,–,–,–,–,–
Y179F,0.049,–,–,0.0594,–,–,0.0716,0.0695,0.0609,0.0603,–,0.0627,–,0.0568,–,0.0522,–,–
T71G,0.0562,0.0611,0.0485,0.0672,0.0621,0.0502,0.0577,0.0709,0.0511,0.0577,–,0.0689,0.0628,0.0702,0.0532,0.0614,0.0507,–
K230H,0.0548,–,0.0678,–,0.0544,–,0.0377,0.0699,0.0543,–,0.0725,0.0392,–,–,0.0674,0.0608,0.0607,0.0209
A207W,0.0638,–,–,0.068,0.0662,0.0475,0.055,0.0647,–,–,0.0648,0.0737,–,–,0.0414,–,0.0667,0.0686
Q198H,0.0727,–,–,–,0.0521,0.0647,0.0762,0.0591,0.0634,0.0484,–,–,–,0.0622,0.0538,–,0.0518,–
A170H,0.0655,–,0.0621,0.0224,–,–,–,–,0.0637,–,0.0637,–,–,0.0585,–,–,–,–
R87Y,0.0504,–,0.0635,0.0568,–,0.0713,0.0674,–,0.0566,0.0582,0.0557,–,0.0657,–,0.0995,0.0577,–,–
Q234A,0.0583,0.0378,–,0.0669,0.0641,–,0.0801,–,–,0.0678,0.0314,–,–,–,0.0659,–,0.0633,–
P14L,0.0683,0.0609,0.0646,0.0754,0.0555,0.0641,0.0754,–,0.0604,0.0661,0.0544,–,0.0594,–,0.0574,0.051,0.0492,0.055
F173C,0.0603,0.0505,–,–,0.0528,–,0.0697,0.0519,0.0534,0.053,–,–,–,–,0.0599,0.0567,0.0667,–
F65H,0.0541,–,0.063,0.0661,0.0527,0.0644,0.0692,–,–,0.0527,–,0.0507,–,0.067,0.0538,–,0.0563,–
V210R,0.0668,–,0.0501,0.0588,0.0583,–,–,–,0.0561,0.067,–,0.0613,–,–,0.0593,–,–,0.0636
F92D,0.028,–,–,0.0434,0.0575,0.0494,0.039,0.0519,0.0726,0.0481,–,0.0482,0.0359,–,0.0584,–,–,0.054
I86T,0.0565,–,0.0589,0.0726,0.0564,0.0576,0.0496,–,0.0447,0.0448,–,0.0471,–,0.0405,0.0524,–,–,–

Variant,area with substrate ENLYFCS,area with substrate ENLYFDS,area with substrate ENLYFES,area with substrate ENLYFFS,area with substrate ENLYFIS,area with substrate ENLYFKS,area with substrate ENLYFMS,area with substrate ENLYFNS,area with substrate ENLYFRS,area with substrate ENLYFTS,area with substrate ENLYFVS,area with substrate ENLYFWS,area with substrate ENLYFGS,area with substrate ENLYFHS,area with substrate ENLYFPS,area with substrate ENLYFLS,area with substrate ENLYFYS,area with substrate ENLYFSS
F226R,0.0523,–,0.0591,0.0789,0.0533,–,0.0447,0.061,0.0434,0.0409,–,–,0.0665,–,0.0601,0.0583,–,–
F41H,0.0572,–,0.0585,0.0625,0.0525,–,0.0657,0.0538,0.0623,0.0591,–,0.0471,–,0.0538,0.0627,–,0.0492,0.0653
R50G,0.0653,0.0523,–,0.0721,0.061,–,0.0615,–,0.0615,–,–,–,–,–,0.0623,–,0.059,–
L211R,0.075,–,–,–,–,–,0.0602,0.0747,0.0746,0.0498,0.043,–,–,0.0438,0.0351,–,–,–
N178H,0.065,0.0581,0.0844,–,–,–,0.0767,0.0765,–,–,–,0.0592,–,–,–,–,–,–
F133A,0.056,–,0.0824,0.0617,0.0635,–,0.0684,–,–,–,–,0.0598,–,–,–,–,0.0663,0.0849
G214P,0.0584,0.0435,0.0401,0.0542,0.0532,–,0.0457,0.0616,–,–,0.0265,–,0.0485,0.0704,–,–,–,–
Q146F,0.0653,–,–,0.0777,0.0597,0.0738,–,–,–,0.0585,–,0.0507,0.0703,0.0924,0.0533,–,0.0447,0.0573
S154Y,0.0598,–,0.05,0.0687,0.053,–,–,–,–,–,–,–,0.0616,–,0.0588,–,–,0.0553
D137I,0.0506,0.0608,0.0514,0.0561,0.0585,0.0544,0.0582,0.0573,–,0.0784,–,0.0598,–,0.0544,0.0758,–,0.0599,0.0655
E107P,0.0734,–,0.078,–,–,–,0.0229,0.0522,0.0461,–,–,0.0522,–,–,0.054,–,–,–
K66G,0.0549,–,0.0781,0.0614,0.0504,0.0643,0.0542,0.0548,–,0.0703,0.0551,–,0.0553,–,0.0505,0.0536,0.0632,–
T115A,0.0619,–,–,0.0775,0.0563,0.0697,0.0672,0.0424,0.064,–,0.0555,–,0.0599,0.0531,–,0.0692,0.0515,–
K90P,0.0546,–,0.0731,0.063,0.0613,0.0604,0.0751,0.0582,0.0439,0.0598,–,0.0665,–,–,0.0504,0.0663,0.0559,0.0579
P93T,0.0544,0.0792,–,0.0734,0.0581,–,0.0615,0.0549,–,–,–,0.0637,–,–,0.0614,–,–,–
K90S,0.0743,0.0611,–,0.0667,0.0558,0.0631,0.0753,0.074,0.0606,0.058,0.0553,0.0602,0.0674,–,0.0674,–,0.0466,0.0446
